The list shows a part of the results. Many values rest on one well or one pass, so single values are uncertain.
Each compound was assayed on A375 (assay: cell count relative to DMSO control; melanoma cells; higher = more viable cells). Details: library dose: standard library concentration; 72 h.
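Further: cells treated in 1,536-well plates, then fixed and DAPI-stained, with nuclei counted from automated high-throughput microscope images.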

Row | SMILES | cell count [%]
1 | Cn1c(Nc2ccc(C(F)(F)F)cc2)nc2cc(Oc3ccnc(-c4ncc(C(F)(F)F)[nH]4)c3)ccc21 + N#Cc1c(O)c2c(-c3ccc(-c4ccccc4O)cc3)csc2[nH]c1=O [A769662] (first compound 0.4 µM, partner dose 10 µM) | 118
2 | COCC[n+]1c2c(n(Cc3cnccn3)c1C)C(=O)c1ccccc1C2=O + N#Cc1c(O)c2c(-c3ccc(-c4ccccc4O)cc3)csc2[nH]c1=O [A769662] (first compound 0.002 µM, partner dose 10 µM) | 90.9
3 | Nc1cccc2c1CN(C1CCC(=O)NC1=O)C2=O (stereo unspecified) [lenalidomide] + O=c1cc(-c2cccc3c2Sc2ccccc2S3)oc(N2CCOCC2)c1 [KU55933] (first compound 5 µM, partner dose 5 µM) | 135
4 | O=C(CCCCCCC(=O)Nc1ccccc1)NO [vorinostat] + CCCCCCCCCCCC1=C(O)C(=O)C=C(O)C1=O [Embelin] (first compound 0.4 µM, partner dose 6 µM) | 128
5 | Clc1ccc(Nc2nnc(Cc3ccncc3)c3ccccc23)cc1 [vatalanib] + CCN(CC)CCCCNc1ncc2cc(-c3cc(OC)cc(OC)c3)c(NC(=O)NC(C)(C)C)nc2n1 [PD173074] (first compound 10 µM, partner dose 0.5 µM) | 96.9
6 | Clc1ccc(Nc2nnc(Cc3ccncc3)c3ccccc23)cc1 [vatalanib] + O=C(Nc1ccccc1)c1cc([N+](=O)[O-])ccc1Cl [GW9662] (first compound 10 µM, partner dose 10 µM) | 103
7 | COCC[n+]1c2c(n(Cc3cnccn3)c1C)C(=O)c1ccccc1C2=O + O=c1cc(-c2cccc3c2Sc2ccccc2S3)oc(N2CCOCC2)c1 [KU55933] (first compound 0.002 µM, partner dose 5 µM) | 92.6
8 | C#Cc1cccc(Nc2ncnc3cc(OCCOC)c(OCCOC)cc23)c1 [erlotinib] + c1cc(-c2cnn3cc(-c4ccc(OCCN5CCCCC5)cc4)cnc23)ccn1 [Dorsomorphin] (first compound 4 µM, partner dose 2 µM) | 82.7
9 | Nc1cccc2c1CN(C1CCC(=O)NC1=O)C2=O (stereo unspecified) [lenalidomide] + O=S(=O)(c1ccccc1)N(CC(F)(F)F)c1ccc(C(O)(C(F)(F)F)C(F)(F)F)cc1 [T0901317] (first compound 5 µM, partner dose 7 µM) | 104
10 | COCC[n+]1c2c(n(Cc3cnccn3)c1C)C(=O)c1ccccc1C2=O + CCCCCCCCCCCC1=C(O)C(=O)C=C(O)C1=O [Embelin] (first compound 0.002 µM, partner dose 6 µM) | 98.6
11 | OCc1c[nH]c2ccccc12 [Indole-3-carbinol] + COc1cc2ncnc(Nc3ccc(Oc4ccccc4)cc3)c2cc1OC [SrcI1] (first compound 4 µM, partner dose 10 µM) | 148
12 | C#Cc1cccc(Nc2ncnc3cc(OCCOC)c(OCCOC)cc23)c1 [erlotinib] + CCN(CC)CCCCNc1ncc2cc(-c3cc(OC)cc(OC)c3)c(NC(=O)NC(C)(C)C)nc2n1 [PD173074] (first compound 4 µM, partner dose 0.5 µM) | 133
13 | Cn1c(Nc2ccc(C(F)(F)F)cc2)nc2cc(Oc3ccnc(-c4ncc(C(F)(F)F)[nH]4)c3)ccc21 + Oc1nc(-c2ccc(C(F)(F)F)cc2)nc2c1CSCC2 [XAV939] (first compound 0.4 µM, partner dose 10 µM) | 60.8
14 | C#Cc1cccc(Nc2ncnc3cc(OCCOC)c(OCCOC)cc23)c1 [erlotinib] + COc1cc(N2CCC(N3CCN(C)CC3)CC2)ccc1Nc1ncc(Cl)c(Nc2ccccc2S(=O)(=O)C(C)C)n1 [NVP-TAE684] (first compound 4 µM, partner dose 0.4 µM) | 66.7
15 | COCC[n+]1c2c(n(Cc3cnccn3)c1C)C(=O)c1ccccc1C2=O + COc1ccc(-c2ccc3c(N4CCOCC4)nc(N4C[C@@H](C)O[C@@H](C)C4)nc3n2)cc1CO [KU0063794] (first compound 0.002 µM, partner dose 0.1 µM) | 77.9
16 | O=C(CCCCCCC(=O)Nc1ccccc1)NO [vorinostat] + Oc1cc(-c2nc(-c3ccccc3)[nH]c2-c2ccncc2)ccc1Cl [L779450] (first compound 0.4 µM, partner dose 1 µM) | 78.5
